# Assay results: the supplement of paper PMC3334620
# Whole data set: some 33,000 sequences, median “E-score (-0.5 to 0.5)” near -0.016, cut for the highest 2% near 0.32. The list shows a part of the results.
# Molecular target: T1, Stp1 (UniProt B3LFK1)
# T1 sequence: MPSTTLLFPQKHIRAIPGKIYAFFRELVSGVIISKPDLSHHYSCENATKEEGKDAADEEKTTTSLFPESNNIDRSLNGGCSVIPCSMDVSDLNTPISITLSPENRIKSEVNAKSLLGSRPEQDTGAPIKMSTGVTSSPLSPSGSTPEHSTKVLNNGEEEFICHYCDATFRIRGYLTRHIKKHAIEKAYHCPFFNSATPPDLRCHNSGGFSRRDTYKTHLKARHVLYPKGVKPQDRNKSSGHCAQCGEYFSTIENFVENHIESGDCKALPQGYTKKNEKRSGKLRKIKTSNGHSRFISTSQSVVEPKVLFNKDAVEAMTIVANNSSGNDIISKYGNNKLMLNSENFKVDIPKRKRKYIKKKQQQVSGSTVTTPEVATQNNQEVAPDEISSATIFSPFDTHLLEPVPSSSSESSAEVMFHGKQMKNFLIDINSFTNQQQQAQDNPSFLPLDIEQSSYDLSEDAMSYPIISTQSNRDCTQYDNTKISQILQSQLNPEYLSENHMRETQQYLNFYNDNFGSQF
# Assay: PBM E-score (8-mer binding enrichment) (E-score (-0.5 to 0.5)); higher = stronger / more preferred TF binding; most listed sequences are background and not binding sites
# Conditions: protein concentration: 200 nM; construct: GST-full length
# How it was run: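 Universal all-10-mer Agilent arrays, double-stranded by primer extension on fresh or once-stripped slides, were probed with about 100-200 nM GST-tagged yeast transcription factors made by PURExpress. Fluorescent anti-GST detected bound protein, and masliner normalised the scans. E-scores from the Universal PBM Analysis Suite were given to each ungapped eight-base word pooled with its reverse complement.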
row,Sequence,PBM E-score
1,CTTTGAAC,-0.0989
2,TCAAACAA,0.211
3,CCATTCCG,0.0745
4,ATGTTCTG,-0.167
5,CAGTCTGA,-0.0528
6,GGACCTCC,-0.241
7,ATTCTCCC,-0.0193
8,CGGTCGAA,0.0265
9,GCATTAGC,-0.109
10,ATTAAGAA,0.148
11,GAGAAATA,0.223
12,AATAAGGC,0.231
13,ATCCAGAA,0.0804
14,ACAGAGTA,0.107
15,GGGTACCA,-0.242
16,ATCGCCTA,-0.111
17,TACCTTAA,0.0917
18,ACGTTTTA,0.153
19,GACTATAC,-0.0187
20,ACAGAGCT,-0.189
21,CCGGGGGC,-0.393
22,CCGTATAA,0.341
23,CAGTCAGA,-0.257
24,CCCTGCCA,-0.0377
25,CCAGGCAG,-0.133

row,Sequence,PBM E-score
1,AAATCGTT,0.0207
2,CACCCCAA,-0.106
3,CCCGTTTA,0.185
4,ACAAATAG,0.185
5,AGTGGGCC,-0.14
6,GTTGGGCA,0.0977
7,CTTGCCAC,0.0727
8,AGTGCTTA,-0.0234
9,GGTCTATA,-0.0214
10,GCCTTTAC,0.108
11,AATACACT,0.18
12,GGTATTGA,-0.176
13,AAGTAGGT,-0.121
14,ATTTTAAA,0.315
15,CTCCTATC,-0.163
16,ATGCGGGA,0.0997
17,GTGTAAAA,0.0522
18,GGAGAGTA,-0.237
19,TCTTAGAA,0.237
20,CACTTATA,0.096
21,ACTGCAAG,-0.127
22,CCAGAGTA,0.0185
23,CTGCCAGC,-0.204
24,CGACTTCA,0.0659
25,ACACACTG,-0.0947

row,Sequence,PBM E-score
1,ACAATACG,0.182
2,ACCATCGC,0.115
3,ACTTTTGA,0.172
4,AGAGATCG,-0.0111
5,AACCGCTC,-0.05
6,AGAAGCAA,0.15
7,CACAAGTA,-0.14
8,CCCAACCG,-0.153
9,AGGATTGG,-0.116
10,CCGAGGAA,0.00772
11,ACGTGTCT,-0.0762
12,GCCTCGCA,0.244
13,AATCCACT,0.0601
14,CTAAGGCC,0.121
15,CATGTAAG,0.0893
16,AAAAGAGA,-0.0234
17,AATTATAC,0.0912
18,ACGGTAGA,-0.0955
19,CGGATGAG,-0.185
20,AGACAACG,0.0214
21,ATGCCGGG,-0.0642
22,TCAGCTGA,-0.0803
23,ACCATCCG,-0.144
24,ACTTTGCG,-0.019
25,ATGAGCAG,-0.0299

row,Sequence,PBM E-score
1,ACCCATCG,-0.25
2,CCTACACA,0.0469
3,CCACTTTA,-0.0965
4,CCCTAACG,-0.0628
5,AAACCGAA,-0.0599
6,CCAAATTA,0.0605
7,GCGTGTTA,0.0756
8,AACATCCG,0.0587
9,GTTGCTTA,0.0905
10,CGAGTTTA,-0.0253
11,AACTTTGC,0.0511
12,ACTTCATA,0.14
13,CACGGATA,0.295
14,ACAGTGCA,-0.101
15,AAAGTGCC,0.201
16,CATTGTTC,0.132
17,GCTATTGA,-0.053
18,AATAGCCG,0.284
19,GCGTGATA,0.0872
20,CAATGACC,-0.131
21,ACACATAT,0.158
22,CACTAAGG,0.0993
23,CTGAGGTA,-0.0424
24,GGCCCACC,-0.113
25,ATCAATGA,0.161

row,Sequence,PBM E-score
1,AGACCCCT,-0.301
2,ATTCTTGG,0.147
3,ATTAAACC,0.00574
4,ACGGGCCC,-0.192
5,CGGACGAA,0.183
6,GGACTTGA,-0.279
7,GCGCTCCA,-0.0886
8,GACCCGCA,-0.066
9,CCTACTCC,-0.156
10,GAGGGGAA,-0.137
11,ACGTACTA,-0.0376
12,CGATTCTC,-0.0736
13,CAGCGCGG,0.211
14,ATCGTCGC,0.124
15,CGACACTC,0.00026
16,GACAATAA,0.186
17,CTAGTAAC,-0.106
18,ATCCTCCG,-0.299
19,GAATCTCC,-0.122
20,CCCTTCTC,-0.259
21,CGCATCGC,-0.027
22,CCGAAAGA,0.00631
23,CTTGTGTA,0.0858
24,ACCTCCTC,-0.155
25,CCTACGAA,0.08

row,Sequence,PBM E-score
1,GAAGGTCA,-0.276
2,CCGTTCAC,-0.043
3,CACCGGTG,-0.262
4,ATTGATGG,0.00393
5,CGACGGAG,-0.147
6,CTCCACGA,-0.0671
7,ATGCCTTG,0.274
8,CCAGGGCG,-0.0182
9,GAATTGAC,0.0103
10,GAAGGAGC,-0.324
11,ACATCTGG,0.0279
12,TCGAACAA,0.178
13,CGTGGGAC,-0.109
14,CTGGCTCA,-0.00983
15,AATATAGG,0.132
16,CGTCCTTA,-0.0597
17,GCTATTCC,-0.114
18,GCGGGTCC,-0.307
19,GCCCCACA,-0.0158
20,AACAAGCC,0.0514
21,AAAGAGCG,-0.102
22,ACGGTATG,0.114
23,AGTTACCG,0.0589
24,ATCGCTAC,-0.0953
25,AAATCAAA,0.159

row,Sequence,PBM E-score
1,TGAACCAA,0.143
2,AGTTTGTC,-0.0407
3,GAGTGCTA,-0.221
4,AACTCCGG,0.0786
5,CGCGCTCC,0.103
6,CTGATCCA,-0.109
7,ACATCAAG,-0.0578
8,ATCTATAG,-0.0323
9,GTAGACAA,0.0381
10,GCGTATAA,0.174
11,CATATTCG,0.0652
12,ACCTTCTG,-0.123
13,GAGTTCCC,-0.255
14,AGAGTATA,0.0782
15,ATGAGCCG,0.223
16,ACATAATC,0.073
17,CTATCTCA,0.00699
18,AGACTTTC,-0.256
19,AAACCCCC,-0.269
20,AGAGGAAT,-0.215
21,CAGTTCTC,-0.122
22,GATGCGTA,0.0725
23,ATGCCCTG,0.106
24,CAAGCTTG,-0.216
25,ATTCTACG,0.19

row,Sequence,PBM E-score
1,GCGCCGCC,0.454
2,GTAAGGTA,0.0482
3,GTCGGAAA,0.111
4,GTGTACTA,-0.0337
5,CGCCCGTC,0.133
6,AATACGGG,-0.0327
7,CTCGGGTA,-0.118
8,ACAGGTCA,-0.274
9,ACAGCGCC,0.249
10,AAGACCTA,-0.0977
11,AATTTCAT,0.0595
12,CGGGACCA,-0.276
13,ATTCCCCG,-0.156
14,CACTGCTG,-0.094
15,CATTTGAG,0.112
16,AAAGAAAT,0.128
17,CACTTACA,0.15
18,CCCTATCC,-0.236
19,GCTGTCGA,-0.0776
20,ACCGACAA,0.0811
21,AAAAAGCG,0.178
22,GGGGCTCA,-0.354
23,CTGAGTGA,0.0819
24,AGTAGATC,-0.159
25,CAACAGTA,-0.0637

row,Sequence,PBM E-score
1,AATATTCA,0.128
2,AAGTCCCA,-0.253
3,AAAGTTCC,-0.0752
4,AACGAAAG,0.148
5,GGGGTGGA,-0.336
6,CATTGGTC,-0.218
7,CACAAATC,0.127
8,GTTTTCGA,0.0662
9,CGTGAGCC,-0.0735
10,CTAAGATA,0.0936
11,CACCTCTC,-0.219
12,ATGTGTCG,-0.00911
13,CAGTTCGG,0.127
14,AGTTTATG,0.0225
15,GAGCCGGC,0.0741
16,TCATGAAA,0.0814
17,TGTGTGAA,0.185
18,ACCTTGGG,-0.193
19,AGGTGGCG,-0.0008
